Experimental data published in the supplement of paper PMC11417369.
The other results are listed elsewhere or left out.

system: PfAP2-HC AP2 domain (GST-tagged); assay: gcPBM binding intensity (ln(normalized median fluorescence intensity)); higher = stronger DNA binding
Method in brief: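 The binding buffer was 1× PBS containing 1% milk, 0.2 mg/ml BSA, 0.5% salmon testes DNA and 0.03% Triton X-100. In it, GST-tagged P. falciparum DNA-binding domains expressed in E. coli were applied for 1 h to an Agilent 4 × 180k array of primer-extended double-stranded 36-bp intergenic genomic probes plus negative controls. Binding intensity, read with Alexa488 anti-GST antibody and a 488 nm scan, is the highest Masliner-normalised natural-log median intensity across replicate spots of either probe orientation.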

Sequence | gcPBM binding intensity (ln)
TCATCTTTTATATGTTGTACGTATTTTCATTTATAT [XGTACX_site4855] | 10.1
ATTTAAAAAAGAAAGGTGCATTTCAATAATGTAAAA [GTGCAC_site9585] | 9.51
AAGTAGTGTTAATACTGTACTTATATTTTTTATTAT [XGTACX_site8264] | 9.65
TCACATATTATCTTTACACACTATAAATAAGTTTTA [CACACA_site7335] | 9.69
TATACTTCTTATTAAATGAGTAGTATATATTATATA [TGCATGCA_negctrl_site299] | 9.49
CTATTTCATAAACACACACACACAAACAAACATATA [CACACA_site8234] | 11.5
AAAGATTGCGATGGTTGTACTTTTCTATATTTTTTT [XGTACX_site3492] | 9.88
CTAAAATACGAACACACACACACATATAAATAAATA [CACACA_site7872] | 11.2
AAGTACAAATTTAATAAAAATGAAACAAATATGTAT [TGCATGCA_negctrl_site94] | 9.77
TTTTTTAAAAGAAAATAAAAAATAAGCATAATATGA [CACACA_negctrl_site1574] | 9.34
AAGGTGGAAACAATTACACACACACTAATAAAAAAA [CACACA_site9051] | 10.8
AAGGGTTATTTGATATGTACTTATATATATATATAA [XGTACX_site1659] | 9.86
AAATTAAAAAAGAATATACACACCAAAACTGTTTGT [CACACA_site958] | 9.82
ACCATACATACATACACACACACACGCATATTTATA [CACACA_site7386] | 11.2
TAATTTTAAATATCTTCACACATTATATTTTTATAT [CACACA_site5411] | 9.76
TATAATAATACTTATTGTACGATTAGCTTAATTCGT [XGTACX_site15] | 9.51
TATATAAATAGATACACACATACATACATACATACA [CACACA_site260] | 10.6
ATGGAATTTTTAGAATATGGATAATGTTACTTAAGT [CACACA_negctrl_site494] | 9.49
AAAAACCATGGGCACACACACATAATATATAATATA [CACACA_site1425] | 10.4
TATATCGTTAATTATACACACATAAAATTAAACTTT [CACACA_site1274] | 9.65
GTTATATATATATATATATATATATATATTTTTTTT [GTGCAC_negctrl_site597] | 9.68
AGTGTTAAAAATGAGGGTACATATAAAATACAGTTC [XGTACX_site457] | 9.8
ACAGGATTGGTTCAAACACACATATTATATGACTAT [CACACA_site4536] | 9.81
TAATCATTTTAGCTTACACACAAAATTTGGTTATAA [CACACA_site5604] | 9.67
